Assay results reported in the supplement of paper PMC8728848.
Some of the results follow.

Experiments:
Assay in all cases: glycan array binding signal (z-score within array); higher = stronger binding
Details in all cases: glycan notation: IUPAC condensed, linker removed
[1] = target: GlcNAc(b1-3)Gal(b1-4)GlcNAc(b1-3)Gal(b1-4)GlcNAc(b1-3)GalNAc
Method in brief: (§1)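 Glycan array data came from 3228 arrays in the Consortium for Functional Glycomics database, and only arrays with an available protein sequence were kept. Glycan names were put into IUPAC-condensed notation, and columns mapping to the same glycan were averaged. The binding signal is a within-array Z-score, averaged across arrays of one protein sequence run at different concentrations or buffers and across linkers. A negative Z-score can be read as non-binding.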

[2] = target: GlcNAc(b1-3)Gal(b1-4)GlcNAc(b1-3)GalNAc
Method in brief: as §1

[3] = target: GlcNAc(b1-3)Gal(b1-4)GlcNAc(b1-3)[GlcNAc(b1-3)Gal(b1-4)GlcNAc(b1-3)]GalNAc
Method in brief: as §1

[4] = target: GlcNAc(b1-3)Gal(b1-4)GlcNAc(b1-6)[Gal(b1-3)]GalNAc
Method in brief: as §1

[5] = target: GlcNAc(b1-3)Gal(b1-4)GlcNAc(b1-6)[GlcNAc(b1-3)Gal(b1-3)]GalNAc
Method in brief: as §1

[6] = target: GlcNAc(b1-3)Gal(b1-4)GlcNAc(b1-6)[GlcNAc(b1-3)]Gal(b1-4)GlcNAc
Method in brief: as §1

GlcNAc(b1-3)GalNAc = target: GlcNAc(b1-3)GalNAc
Method in brief: as §1

GlcNAc(b1-3)Man = target: GlcNAc(b1-3)Man
Method in brief: as §1

[7] = target: GlcNAc(b1-3)[GlcNAc(b1-4)][GlcNAc(b1-6)]GlcNAc
Method in brief: as §1

[8] = target: GlcNAc(b1-3)[GlcNAc(b1-6)]Gal(b1-4)GlcNAc
Method in brief: as §1

[9] = target: GlcNAc(b1-3)[GlcNAc(b1-6)]GalNAc
Method in brief: as §1

[10] = target: GlcNAc(b1-4)Gal(b1-4)GlcNAc
Method in brief: as §1

GlcNAc(b1-4)GlcNAc = target: GlcNAc(b1-4)GlcNAc
Method in brief: as §1

[11] = target: GlcNAc(b1-4)GlcNAc(b1-4)GlcNAc
Method in brief: as §1

[12] = target: GlcNAc(b1-4)GlcNAc(b1-4)GlcNAc(b1-4)GlcNAc(b1-4)GlcNAc
Method in brief: as §1

[13] = target: GlcNAc(b1-4)GlcNAc(b1-4)GlcNAc(b1-4)GlcNAc(b1-4)GlcNAc(b1-4)GlcNAc
Method in brief: as §1

[14] = target: GlcNAc(b1-4)[GlcNAc(b1-6)]GalNAc
Method in brief: as §1

[15] = target: GlcNAc(b1-6)Gal(b1-4)GlcNAc
Method in brief: as §1

GlcNAc(b1-6)GalNAc = target: GlcNAc(b1-6)GalNAc
Method in brief: as §1

[16] = target: GlcNAc6S(b1-3)Gal(b1-4)GlcNAc
Method in brief: as §1

Kdn(a2-3)Gal(b1-3)GalNAc = target: Kdn(a2-3)Gal(b1-3)GalNAc
Method in brief: as §1

Kdn(a2-3)Gal(b1-3)GlcNAc = target: Kdn(a2-3)Gal(b1-3)GlcNAc
Method in brief: as §1

Kdn(a2-3)Gal(b1-4)Glc = target: Kdn(a2-3)Gal(b1-4)Glc
Method in brief: as §1

Kdn(a2-3)Gal(b1-4)GlcNAc = target: Kdn(a2-3)Gal(b1-4)GlcNAc
Method in brief: as §1

[17] = target: Kdn(a2-3)Gal(b1-4)[Fuc(a1-3)]GlcNAc
Method in brief: as §1

Kdn(a2-6)Gal(b1-4)GlcNAc = target: Kdn(a2-6)Gal(b1-4)GlcNAc
Method in brief: as §1

[18] = target: Man(a1-2)Man(a1-2)Man(a1-3)Man
Method in brief: as §1

[19] = target: Man(a1-2)Man(a1-2)Man(a1-6)[Man(a1-3)]Man
Method in brief: as §1

Man(a1-2)Man(a1-3)Man = target: Man(a1-2)Man(a1-3)Man
Method in brief: as §1

[20] = target: Man(a1-2)Man(a1-3)[Man(a1-2)Man(a1-6)]Man
Method in brief: as §1

[21] = target: Man(a1-2)Man(a1-3)[Man(a1-2)Man(a1-6)]Man(a1-6)[Man(a1-2)Man(a1-2)Man(a1-3)]Man
Method in brief: as §1

[22] = target: Man(a1-2)Man(a1-3)[Man(a1-2)Man(a1-6)]Man(a1-6)[Man(a1-2)Man(a1-2)Man(a1-3)]Man(b1-4)GlcNAc(b1-4)GlcNAc
Method in brief: as §1

[23] = target: Man(a1-2)Man(a1-3)[Man(a1-6)]Man(a1-6)[Man(a1-2)Man(a1-3)]Man(b1-4)GlcNAc(b1-4)GlcNAc
Method in brief: as §1

[24] = target: Man(a1-2)Man(a1-6)[Man(a1-3)]Man(a1-6)[Man(a1-2)Man(a1-2)Man(a1-3)]Man
Method in brief: as §1

[25] = target: Man(a1-2)Man(a1-6)[Man(a1-3)]Man(a1-6)[Man(a1-2)Man(a1-2)Man(a1-3)]Man(b1-4)GlcNAc(b1-4)GlcNAc
Method in brief: as §1

Man(a1-3)[Man(a1-6)]Man = target: Man(a1-3)[Man(a1-6)]Man
Method in brief: as §1

[26] = target: Man(a1-3)[Man(a1-6)]Man(a1-6)[Man(a1-2)Man(a1-3)]Man(b1-4)GlcNAc(b1-4)GlcNAc
Method in brief: as §1

[27] = target: Man(a1-3)[Man(a1-6)]Man(a1-6)[Man(a1-3)]Man
Method in brief: as §1

[28] = target: Man(a1-3)[Man(a1-6)]Man(a1-6)[Man(a1-3)]Man(b1-4)GlcNAc(b1-4)GlcNAc
Method in brief: as §1

[29] = target: Man(a1-3)[Man(a1-6)]Man(b1-4)GlcNAc(b1-4)GlcNAc
Method in brief: as §1

[30] = target: Man(a1-3)[Man(a1-6)]Man(b1-4)GlcNAc(b1-4)[Fuc(a1-6)]GlcNAc
Method in brief: as §1

Man(a1-6)Man = target: Man(a1-6)Man
Method in brief: as §1

Man(b1-4)GlcNAc = target: Man(b1-4)GlcNAc
Method in brief: as §1

MurNAc(b1-4)GlcNAc = target: MurNAc(b1-4)GlcNAc
Method in brief: as §1

Neu5Ac(a2-3)Gal = target: Neu5Ac(a2-3)Gal
Method in brief: as §1

B1: LecB PA7 (Pseudomonas aeruginosa) (protein)
chain: MATQGVFTLPANTRFGVTAFANSSATQTVKVLVNNETAATFTGQSTNNAVIGSQVLNSGGGGKVQIQVSVNGRSSDLVSAQVILANELNVALVGSEDSTDNDYNDAVVVINWPLG
- glycan array binding signal (z-score) [1]: -0.51
- glycan array binding signal (z-score) [2]: -0.495
- glycan array binding signal (z-score) [3]: -0.496
- glycan array binding signal (z-score) [4]: -0.516
- glycan array binding signal (z-score) [5]: -0.505
- glycan array binding signal (z-score) [6]: -0.51
- glycan array binding signal (z-score) (GlcNAc(b1-3)GalNAc): -0.506
- glycan array binding signal (z-score) (GlcNAc(b1-3)Man): -0.39
- glycan array binding signal (z-score) [7]: -0.499
- glycan array binding signal (z-score) [8]: -0.516
- glycan array binding signal (z-score) [9]: -0.512
- glycan array binding signal (z-score) [10]: -0.495
- glycan array binding signal (z-score) (GlcNAc(b1-4)GlcNAc): -0.486
- glycan array binding signal (z-score) [11]: -0.497
- glycan array binding signal (z-score) [12]: -0.494
- glycan array binding signal (z-score) [13]: -0.497
- glycan array binding signal (z-score) [14]: -0.516
- glycan array binding signal (z-score) [15]: -0.448
- glycan array binding signal (z-score) (GlcNAc(b1-6)GalNAc): -0.504
- glycan array binding signal (z-score) [16]: -0.504
- glycan array binding signal (z-score) (Kdn(a2-3)Gal(b1-3)GalNAc): -0.157
- glycan array binding signal (z-score) (Kdn(a2-3)Gal(b1-3)GlcNAc): -0.511
- glycan array binding signal (z-score) (Kdn(a2-3)Gal(b1-4)Glc): -0.485
- glycan array binding signal (z-score) (Kdn(a2-3)Gal(b1-4)GlcNAc): -0.509
- glycan array binding signal (z-score) [17]: -0.183
- glycan array binding signal (z-score) (Kdn(a2-6)Gal(b1-4)GlcNAc): -0.503
- glycan array binding signal (z-score) [18]: 1.01
- glycan array binding signal (z-score) [19]: 2.29
- glycan array binding signal (z-score) (Man(a1-2)Man(a1-3)Man): 0.668
- glycan array binding signal (z-score) [20]: 1.53
- glycan array binding signal (z-score) [21]: 3.2
- glycan array binding signal (z-score) [22]: -0.423
- glycan array binding signal (z-score) [23]: 2.02
- glycan array binding signal (z-score) [24]: 2.12
- glycan array binding signal (z-score) [25]: 2.22
- glycan array binding signal (z-score) (Man(a1-3)[Man(a1-6)]Man): 2.23
- glycan array binding signal (z-score) [26]: 2.3
- glycan array binding signal (z-score) [27]: -0.31
- glycan array binding signal (z-score) [28]: 1.12
- glycan array binding signal (z-score) [29]: 2.08
- glycan array binding signal (z-score) [30]: 2.24
- glycan array binding signal (z-score) (Man(a1-6)Man): -0.228
- glycan array binding signal (z-score) (Man(b1-4)GlcNAc): -0.416
- glycan array binding signal (z-score) (MurNAc(b1-4)GlcNAc): -0.514
- glycan array binding signal (z-score) (Neu5Ac(a2-3)Gal): -0.509
